One block for each binder: values may come before it.
How the values were obtained:
[1] = target: T1, CLDN 18.2 fused with GFP at its C-terminal, on MCF7 cells (MCF7-CLDN 18.2) (human); experiment: cell-based or functional assay
[2] = target: T2, CLDN 18.2 expressed on stably transfected cells (HEK293T-CLDN 18.2, MiaPaCa-CLDN 18.2) (human); experiment: cell-based or functional assay
[3] = target: claudin 18.2 (CLDN 18.2), recombinant protein (human); experiment: direct ELISA, coated recombinant CLDN 18.2 (FIG. 11B)
[4] = target: claudin 18.2 (CLDN 18.2), recombinant protein (human); experiment: direct ELISA, coated recombinant CLDN 18.2
From the text: (§1) ELISA assay was employed to determine the binding properties of the bispecific antibodies to their antigens. […] The wells were then reacted with goat anti human IgG antibody conjugated with horseradish peroxidase (HRP).

[5] = target: T1, CLDN 18.2 fused with GFP at its …; experiment: cell-based or functional assay; remark: listed apart in the source
[6] = target: T2, CLDN 18.2 expressed on stably …; experiment: cell-based or functional assay; remark: listed apart in the source
[7] = target: T2, CLDN 18.2 expressed on stably …; experiment: In-Cell ELISA on fixed HEK293T cells over-expressing CLDN 18.2
[8] = target: T3, PD-L1 (programmed death-ligand 1), recombinant protein (human, UniProt Q9NZQ7 part only, limits assumed); experiment: direct ELISA, coated PD-L1 (FIG. 13A)
T3 construct: the other ELISAs print only 'PD-L1'; also called human PDL1; CD274
T3 sequence (Q9NZQ7 19-238 limits assumed): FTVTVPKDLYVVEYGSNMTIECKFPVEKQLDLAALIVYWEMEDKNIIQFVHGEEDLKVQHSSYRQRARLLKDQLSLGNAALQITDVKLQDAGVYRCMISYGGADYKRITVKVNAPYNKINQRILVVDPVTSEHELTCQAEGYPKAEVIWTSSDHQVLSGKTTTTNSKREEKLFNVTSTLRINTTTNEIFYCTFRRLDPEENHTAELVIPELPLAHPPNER

[9] = target: T3, PD-L1 (programmed death-ligand 1), …; experiment: direct ELISA, coated PD-L1
From the text: as §1

[10] = target: T3, PD-L1 (programmed death-ligand 1), …; experiment: competitive ELISA, coated PD-L1, antibody pre-incubated with soluble PD-L1 (FIG. 13B)
[11] = target: claudin 18.2 (CLDN 18.2), recombinant protein (human); experiment: direct ELISA, coated recombinant CLDN 18.2 (FIG. 11A)
[12] = target: T1, CLDN 18.2 fused with GFP at its …; experiment: flow cytometry on living MCF7 cells stably expressing CLDN 18.2, DyLight 650 anti-IgG
[13] = target: T3, PD-L1 (programmed death-ligand 1), …; experiment: competitive ELISA, coated PD-L1, antibody pre-incubated with soluble PD-L1
[14] = target: T3, PD-L1 (programmed death-ligand 1), …; experiment: direct ELISA, coated PD-L1 (FIG. 12A)
[15] = target: T3, PD-L1 (programmed death-ligand 1), …; experiment: competitive ELISA, coated PD-L1, antibody pre-incubated with soluble PD-L1 (FIG. 12B)

B1: Dblnk12, linker-enhanced single-chain bispecific antibody (bispecific antibody)
chain: DIQMTQSPSSLSASVGDRVTITCKSSQSLLNSGNQKSYLTWYQQKPGKAPKLLIYWASTLESGVPSRFSGSGSGTDYTLTISSLQPEDFATYYCQNAYFFPFTFGQGTKVEIKGSGSEVQLVESGGGLVQPGGSLRLSCAASGFTFSRYWMSWVRQAPGKGLEWVANIKQDGSEKYYVDSVKGRFTISRDNAKNSLYLQMNSLRAEDTAVYYCAREGGWFGELAFDYWGQGTLVTVSSSSSSSGGGGSGGSSSGEIVLTQSPGTLSLSPGERATLSCRASQRVSSSYLAWYQQKPGQAPRLLIYDASSRATGIPDRFSGSGSGTDFTLTISRLEPEDFAVYYCQQYGSLPWTFGQGTKVEIKSSSGGGEVQLVESGGGLVQPGGSLRLSCAVSGYTFSMNWVRQAPGKGLEWVAWINMYTGEPTYADDFKGRFTISRDDSKNTLYLQMNSLRAEDTAVYYCARLYNGNSLDYWGQGTLVTVSSGGGGS[human IgG1 Fc with C220S (EU numbers) not printed]
notes: Single polypeptide with Fc; also called DbInk12; DbInk 12
ADCC reporter assay, EC50 (FIG. 24B) [1]: 4.41 pM
ADCC reporter assay, EC50 (FIG. 23A) [2]: 4.84 pM
Kd [3]: 205 pM
Kd [4]: 200 pM
ADCC Reporter in MCF7-CLDN 18.2, EC50 [5]: 4.4 pM
ADCC Reporter in HEK293-CLDN18.2, EC50 [6]: 5 pM
Bmax [7]: 1.07 nM
Kd [7]: 632 pM

B3: Dblnk4, linker-enhanced single-chain bispecific antibody (bispecific antibody)
chain: DIQMTQSPSSLSASVGDRVTITCKSSQSLLNSGNQKSYLTWYQQKPGKAPKLLIYWASTLESGVPSRFSGSGSGTDYTLTISSLQPEDFATYYCQNAYFFPFTFGQGTKVEIKGGGGSGEVQLVESGGGLVQPGGSLRLSCAASGFTFSRYWMSWVRQAPGKGLEWVANIKQDGSEKYYVDSVKGRFTISRDNAKNSLYLQMNSLRAEDTAVYYCAREGGWFGELAFDYWGQGTLVTVSSGSSSGGGSGGSSSSSSEIVLTQSPGTLSLSPGERATLSCRASQRVSSSYLAWYQQKPGQAPRLLIYDASSRATGIPDRFSGSGSGTDFTLTISRLEPEDFAVYYCQQYGSLPWTFGQGTKVEIKSGGSEVQLVESGGGLVQPGGSLRLSCAVSGYTFSMNWVRQAPGKGLEWVAWINMYTGEPTYADDFKGRFTISRDDSKNTLYLQMNSLRAEDTAVYYCARLYNGNSLDYWGQGTLVTVSSGGGGS[human IgG1 Fc with C220S (EU numbers) not printed]
notes: Single polypeptide with Fc; also called DbInk4; DbInk 4
Kd [11]: 239 pM
ADCC reporter assay, EC50 (FIG. 24A) [1]: 1.73 pM
Kd [4]: 240 pM
EC50 (read off the curve) [12]: ~5000 pM
ADCC Reporter in MCF7-CLDN 18.2, EC50 [5]: 2 pM

B7: Dblnk3, linker-enhanced single-chain bispecific antibody (bispecific antibody)
chain: DIQMTQSPSSLSASVGDRVTITCKSSQSLLNSGNQKSYLTWYQQKPGKAPKLLIYWASTLESGVPSRFSGSGSGTDYTLTISSLQPEDFATYYCQNAYFFPFTFGQGTKVEIKSGGGGEVQLVESGGGLVQPGGSLRLSCAASGFTFSRYWMSWVRQAPGKGLEWVANIKQDGSEKYYVDSVKGRFTISRDNAKNSLYLQMNSLRAEDTAVYYCAREGGWFGELAFDYWGQGTLVTVSSGGGGSGSGSSGSSSGEIVLTQSPGTLSLSPGERATLSCRASQRVSSSYLAWYQQKPGQAPRLLIYDASSRATGIPDRFSGSGSGTDFTLTISRLEPEDFAVYYCQQYGSLPWTFGQGTKVEIKSGGGGEVQLVESGGGLVQPGGSLRLSCAVSGYTFSMNWVRQAPGKGLEWVAWINMYTGEPTYADDFKGRFTISRDDSKNTLYLQMNSLRAEDTAVYYCARLYNGNSLDYWGQGTLVTVSSGGGGS[human IgG1 Fc with C220S (EU numbers) not printed]
notes: Single polypeptide with Fc; also called DbInk3; DbINK3
Kd [13]: 660 pM
Kd [11]: 294 pM
Kd [8]: 498 pM
CDC against MCF7-CLDN 18.2 cells, EC50 (FIG. 17A) [1]: 821 pM
ADCC reporter assay, EC50 (FIG. 23A) [2]: 1.04 pM
Kd [9]: 500 pM
Kd [4]: 290 pM
ADCC Reporter in MCF7-CLDN 18.2, EC50 [5]: 7.5 pM
CDC in MCF7-CLDN 18.2, EC50 [5]: 820 pM
ADCC Reporter in HEK293-CLDN18.2, EC50 [6]: 1 pM
Bmax [7]: 1.01 nM
Kd [7]: 523 pM
IC50 [10]: 656 pM

More lines, main results first:

Kd [3]: 225 pM
Kd [4]: 220 pM
B2: Dblnk17, linker-enhanced single-chain bispecific antibody (bispecific antibody)
chain: DIQMTQSPSSLSASVGDRVTITCKSSQSLLNSGNQKSYLTWYQQKPGKAPKLLIYWASTLESGVPSRFSGSGSGTDYTLTISSLQPEDFATYYCQNAYFFPFTFGQGTKVEIKSGSGGSEVQLVESGGGLVQPGGSLRLSCAASGFTFSRYWMSWVRQAPGKGLEWVANIKQDGSEKYYVDSVKGRFTISRDNAKNSLYLQMNSLRAEDTAVYYCAREGGWFGELAFDYWGQGTLVTVSSGSGGGGSSGSSGSGGSGEIVLTQSPGTLSLSPGERATLSCRASQRVSSSYLAWYQQKPGQAPRLLIYDASSRATGIPDRFSGSGSGTDFTLTISRLEPEDFAVYYCQQYGSLPWTFGQGTKVEIKSSSGSSEVQLVESGGGLVQPGGSLRLSCAVSGYTFSMNWVRQAPGKGLEWVAWINMYTGEPTYADDFKGRFTISRDDSKNTLYLQMNSLRAEDTAVYYCARLYNGNSLDYWGQGTLVTVSSGGGGS[human IgG1 Fc with C220S (EU numbers) not printed]
notes: Single polypeptide with Fc; also called DbInk17; DbInk 17
Kd [8]: 437 pM
Kd [9]: 440 pM
IC50 [10]: 652 pM

Kd [3]: 232 pM
Kd [4]: 230 pM
B4: Dblnk15, linker-enhanced single-chain bispecific antibody (bispecific antibody)
chain: DIQMTQSPSSLSASVGDRVTITCKSSQSLLNSGNQKSYLTWYQQKPGKAPKLLIYWASTLESGVPSRFSGSGSGTDYTLTISSLQPEDFATYYCQNAYFFPFTFGQGTKVEIKGGGSGEVQLVESGGGLVQPGGSLRLSCAASGFTFSRYWMSWVRQAPGKGLEWVANIKQDGSEKYYVDSVKGRFTISRDNAKNSLYLQMNSLRAEDTAVYYCAREGGWFGELAFDYWGQGTLVTVSSGSSSGGSSGSGGGGGGGEIVLTQSPGTLSLSPGERATLSCRASQRVSSSYLAWYQQKPGQAPRLLIYDASSRATGIPDRFSGSGSGTDFTLTISRLEPEDFAVYYCQQYGSLPWTFGQGTKVEIKSGGSEVQLVESGGGLVQPGGSLRLSCAVSGYTFSMNWVRQAPGKGLEWVAWINMYTGEPTYADDFKGRFTISRDDSKNTLYLQMNSLRAEDTAVYYCARLYNGNSLDYWGQGTLVTVSSGGGGS[human IgG1 Fc with C220S (EU numbers) not printed]
notes: Single polypeptide with Fc; also called DbInk15
Kd [13]: 580 pM
Kd [8]: 460 pM
Kd [9]: 460 pM
IC50 [10]: 580 pM

Kd [11]: 323 pM
CDC against MCF7-CLDN 18.2 cells, EC50 (FIG. 17A) [1]: 1030 pM
ADCC reporter assay, EC50 (FIG. 23A) [2]: 9.37 pM
CDC against Mia Paca-CLDN 18.2 cells, EC50 (FIG. 17B) [2]: 349 pM
Kd [4]: 320 pM
ADCC Reporter in MCF7-CLDN 18.2, EC50 [5]: 11 pM
CDC in MCF7-CLDN 18.2, EC50 [5]: 1000 pM
ADCC Reporter in HEK293-CLDN18.2, EC50 [6]: 9.4 pM
CDC in MiaPaCa-CLDN 18.2, EC50 [6]: 350 pM
Kd [7]: 3230 pM
B5: Dblnk2, linker-enhanced single-chain bispecific antibody (bispecific antibody)
chain: DIQMTQSPSSLSASVGDRVTITCKSSQSLLNSGNQKSYLTWYQQKPGKAPKLLIYWASTLESGVPSRFSGSGSGTDYTLTISSLQPEDFATYYCQNAYFFPFTFGQGTKVEIKSGGGGEVQLVESGGGLVQPGGSLRLSCAASGFTFSRYWMSWVRQAPGKGLEWVANIKQDGSEKYYVDSVKGRFTISRDNAKNSLYLQMNSLRAEDTAVYYCAREGGWFGELAFDYWGQGTLVTVSSSSSGSGGGGSGGGGGGEIVLTQSPGTLSLSPGERATLSCRASQRVSSSYLAWYQQKPGQAPRLLIYDASSRATGIPDRFSGSGSGTDFTLTISRLEPEDFAVYYCQQYGSLPWTFGQGTKVEIKGSSGSEVQLVESGGGLVQPGGSLRLSCAVSGYTFSMNWVRQAPGKGLEWVAWINMYTGEPTYADDFKGRFTISRDDSKNTLYLQMNSLRAEDTAVYYCARLYNGNSLDYWGQGTLVTVSSGGGGS[human IgG1 Fc with C220S (EU numbers) not printed]
notes: Single polypeptide with Fc; also called DbInk2; DbInk 2
Kd [14]: 882 pM
Kd [8]: 642 pM
IC50 [15]: 573 pM
Kd [9]: 640 pM
IC50 [10]: 426 pM

Kd [11]: 269 pM
ADCC reporter assay, EC50 (FIG. 24A) [1]: 2.64 pM
Kd [4]: 270 pM
ADCC Reporter in MCF7-CLDN 18.2, EC50 [5]: 3 pM
B6: Dblnk9, linker-enhanced single-chain bispecific antibody (bispecific antibody)
chain: DIQMTQSPSSLSASVGDRVTITCKSSQSLLNSGNQKSYLTWYQQKPGKAPKLLIYWASTLESGVPSRFSGSGSGTDYTLTISSLQPEDFATYYCQNAYFFPFTFGQGTKVEIKGSSRSSEVQLVESGGGLVQPGGSLRLSCAASGFTFSRYWMSWVRQAPGKGLEWVANIKQDGSEKYYVDSVKGRFTISRDNAKNSLYLQMNSLRAEDTAVYYCAREGGWFGELAFDYWGQGTLVTVSSSGSSGSSSSSGSGSGEIVLTQSPGTLSLSPGERATLSCRASQRVSSSYLAWYQQKPGQAPRLLIYDASSRATGIPDRFSGSGSGTDFTLTISRLEPEDFAVYYCQQYGSLPWTFGQGTKVEIKSSGSGGEVQLVESGGGLVQPGGSLRLSCAVSGYTFSMNWVRQAPGKGLEWVAWINMYTGEPTYADDFKGRFTISRDDSKNTLYLQMNSLRAEDTAVYYCARLYNGNSLDYWGQGTLVTVSSGGGGS[human IgG1 Fc with C220S (EU numbers) not printed]
notes: Single polypeptide with Fc; also called DbInk9

— US20230002486A1 (SPARX THERAPEUTICS, published 2023)
